Measurements reported in PubChem BioAssay AID624417 (National Center for Advancing Translational Sciences (NCATS), 2012).
Hit rate of the full screen: of about 410,000 compounds, about 6,400 (1.6%) were called active. The inconclusive results got no clear call from the source; some entries with a clear call stand among them for comparison. The call rests on the fitted dose curve; in most records, active means well fitted inhibition curve with a large enough effect; inconclusive means small, poorly fitted or top-dose-only effect; inactive means no such curve, though single readings can be large or run the other way. Potencies of inconclusive entries are left out as doubtful fits.
Further: nearly all actives have a fitted effect of over 55% in size.
Potency means the concentration at half of the fitted maximal effect; tags describe the fitted curve by direction and shape.

The compounds below were run against Glucagon-like peptide 1 receptor (Homo sapiens) (UniProt P43220) (assay: qHTS of GLP-1 Receptor Inverse Agonists (Inhibition Mode)). Details: HEK293 GLP-1R CRE-luciferase, luminescence, 24 h, GLP-1R form is constitutively active; series mostly up to 38.3 µM.
UniProt P43220, sequence (P43220 whole entry, looked up): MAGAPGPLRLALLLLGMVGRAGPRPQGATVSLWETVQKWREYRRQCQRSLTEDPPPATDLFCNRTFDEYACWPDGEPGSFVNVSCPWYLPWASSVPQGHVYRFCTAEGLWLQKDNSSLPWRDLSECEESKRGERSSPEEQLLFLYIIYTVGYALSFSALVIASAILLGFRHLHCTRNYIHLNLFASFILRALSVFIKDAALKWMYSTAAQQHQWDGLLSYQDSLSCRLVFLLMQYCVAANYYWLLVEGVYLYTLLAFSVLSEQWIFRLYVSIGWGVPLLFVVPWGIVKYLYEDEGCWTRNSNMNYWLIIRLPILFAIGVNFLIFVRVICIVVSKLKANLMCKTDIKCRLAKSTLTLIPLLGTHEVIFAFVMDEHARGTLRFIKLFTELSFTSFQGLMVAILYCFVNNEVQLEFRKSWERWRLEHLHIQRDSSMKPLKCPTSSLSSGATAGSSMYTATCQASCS
Summary of the method: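 Cells are plated, allowed 12 hours at 37 deg C, then treated with compounds for 24 hr before luciferase detection reagent is added and luminescence is read after 12 min at room temperature. The HEK293 line carries constitutively active GLP-1R with a cAMP-responsive reporter.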
With `CCSc1nnc(NC(=O)c2nc(S(=O)(=O)Cc3ccc(F)cc3)ncc2Cl)s1` the Potency was inconclusive [inhibitor, single point]. `O=S(=O)(c1ccccc1)c1ccc(NCc2ccco2)cc1` was tested, and the Potency was inconclusive [inhibitor, single point]. In the case of `CCOc1ccccc1N1CCN(C/C=C/c2ccc(N(C)C)cc2)CC1`, the Potency is reported as inconclusive [inhibitor, single point]. In the case of `CCOC(=O)C1CCCN(C(=O)c2cc(S(=O)(=O)N3CCCCC3)ccc2Cl)C1` (configuration not stated), the Potency is reported as inconclusive [inhibitor, single point]. In the case of `CCCS(=O)(=O)c1c(S(=O)(=O)CCC)c2cnccn2c1C(=O)c1ccc(CC)cc1`, the Potency is reported as inconclusive [inhibitor, partial curve, poor fit]. In the case of `O=C1C=C(c2ccccc2)C[C@H](c2cccs2)[C@H]1n1nnc([N+](=O)[O-])n1`, the Potency is reported as inconclusive [inhibitor, partial curve, poor fit]. With `COC(=O)c1sc(-c2ccccc2)cc1NC(=O)Nc1ccccc1Cl` the Potency was inconclusive [inhibitor, single point]. In the case of `C=C(C)Cn1c(CCn2c3ccccc3c3ccccc32)n[nH]c1=S`, the Potency is reported as inconclusive [inhibitor, single point]. For `Cc1ccc(C)c(CSc2nc3[nH]ncc3c(=O)[nH]2)c1`, the Potency was inconclusive [inhibitor, full curve]. For `Cc1cc(C(=O)COC(=O)c2n[nH]c3ccccc23)c(C)n1CC1CCCO1` (configuration not stated), the Potency was inconclusive [inhibitor, full curve, poor fit]. In the case of `COc1ccccc1NC(=O)c1ccccc1N(Cc1ccccc1)S(C)(=O)=O`, the Potency is reported as “inactive”. In the case of `O=C1OCCC1Sc1nc2ccccc2c(=O)n1Cc1ccc(F)cc1` (configuration not stated), the Potency is reported as “inactive”. For `CCN1CCCC1CNC(=O)Cn1nc(C)n2c(cc3cc(F)ccc32)c1=O` (configuration not stated), the Potency was inconclusive [inhibitor, partial curve, poor fit]. For `O=C(NCc1nc(-c2ccccc2)no1)Nc1ccc(F)cc1`, the Potency was inconclusive [inhibitor, partial curve, poor fit]. In the case of `N#Cc1c([N+](=O)[O-])cc([N+](=O)[O-])cc1S(=O)(=O)Cc1ccccc1`, the Potency is reported as inconclusive [inhibitor, single point]. For `Fc1cccc(NC(=S)NCc2ccccn2)c1`, the Potency was inconclusive [inhibitor, single point]. `CCC1CCCCN1CCCNC(=O)c1cn(CC)c2ccc(S(=O)(=O)N(C)C3CCCCC3)cc2c1=O` (configuration not stated) was tested, and the Potency was inconclusive [inhibitor, partial curve, poor fit].
